# The whole screen tested about 420,000 compounds, of which about 64,000 (15%) were called active. Inconclusive means that the source gave no clear call. Such entries were picked first, then a sample of the others. Calls follow the shape of the dose curve; as a rule, active = well fitted inhibition curve with a large enough effect; inconclusive = small, poorly fitted or top-dose-only effect; inactive = flat fitted curve, though single readings scatter. No potency is given beside an inconclusive call; the fits are too rough.
# Assay: qHTS for Inhibitors of human tyrosyl-DNA phosphodiesterase 1 (TDP1): qHTS in cells in absence of CPT; also: nearly all actives have a fitted effect of over 55% in size
# Conditions: DT40 Tdp1-/- hTDP1 cells, no CPT, ATP luminescence, 48 h; activity change, negative = growth inhibition: at 46.2 µM (top of the series) unless noted
# Method in brief: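 Chicken DT40 Tdp1-/- cells complemented with human TDP1, screened without camptothecin (DMSO vehicle only), 400 cells/well. Compounds pin-transferred, cells incubated at 37 °C for at least 48 hr. Growth read as ATP-dependent luminescence (CellTiter-Glo, 30 min at RT).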
# % is scaled to controls: 0 for no effect and ±100 for the full control effect; potency is read from the fitted curve at half-maximal effect; tags tell the direction and shape of the fitted curve.
SMILES,Potency,"activity change, negative = growth inhibition"
CCN(CC)CCCNC(=S)N(Cc1cccs1)Cc1cc2cc3c(cc2[nH]c1=O)OCCO3,"inconclusive [inhibitor, single point]",
CC(C(=O)Nc1ccc(F)c(F)c1F)N1CCCCCC1 (centres undefined),"inconclusive [inhibitor, single point]",
c1csc(-c2nc3ccccn3c2Nc2ccc3c(c2)OCCO3)c1,"inconclusive [inhibitor, single point]",
COc1cccc(-n2c(SCC(=O)Nc3ccc(F)cc3F)nc3c([nH]c4ccccc43)c2=O)c1,"inconclusive [inhibitor, single point]",
Cc1cc(C)cc(NC(=O)CN(C)S(=O)(=O)c2cccc3nsnc23)c1,"inconclusive [inhibitor, single point]",
CN(CC(=O)Nc1ccc(F)c(F)c1F)c1ncnc2sccc12,"inconclusive [inhibitor, single point]",
COc1ccc(CCNC(=O)c2n[nH]c(=O)c3ccccc23)cc1,"inconclusive [inhibitor, single point]",
Cc1cc(C)c(S(=O)(=O)N2CCN(c3ccccn3)CC2)c(C)c1,inactive,
Cc1ccc(S(=O)(=O)N2CCCCC2)cc1NC(=S)NC(=O)c1ccco1,"inconclusive [inhibitor, single point]",
COc1c(C(=O)NNC(=O)c2ccccc2Cl)csc1Br,inactive,
CCn1c(SCc2cccc(OC)c2)nc2ccccc2c1=O,active: 20.6 µM,
C=CCn1c(=O)c(C(=O)Nc2cccnc2)c(O)c2ccccc21,"inconclusive [inhibitor, single point]",
CC(C)[N+]1=C2C=CC=CC=C2SC12C([N+](=O)[O-])=CC(=[N+]([O-])[O-])C=C2[N+](=O)[O-] (centres undefined),"inconclusive [inhibitor, partial curve]",
O=C(Nc1cccc(F)c1)c1cccnc1NCCc1ccccc1,"inconclusive [inhibitor, single point]",
CCCCOC(=O)c1ccc(NC(=O)CSc2nc3c(c(=O)[nH]2)CCC3)cc1,"inconclusive [inhibitor, single point]",
O=C(c1cccc(NS(=O)(=O)c2ccc(F)c(F)c2)c1)N1CCN(Cc2ccccc2)CC1,"inconclusive [inhibitor, single point]",
O=C(N=Nc1c(O)n(C2OC(=O)c3ccccc32)c2ccccc12)c1ccc(O)cc1 (centres undefined),,inconclusive: -37.1% [inhibitor]
Cc1ccsc1C(=O)OCC(=O)Nc1nnc(-c2ccccc2)o1,"inconclusive [inhibitor, single point]",
COc1ccccc1CNC(=O)c1cccc(NC(=O)N2CCSc3ncccc32)c1,"inconclusive [inhibitor, single point]",
COc1cc(-c2nc3cccc(C)n3c2Nc2ccc3c(c2)OCCO3)ccc1O,"inconclusive [inhibitor, single point]",
O=C(C1CC1)N1CCN(c2ccnc3cc(Cl)ccc23)CC1,"inconclusive [inhibitor, single point]",
COc1ccc(COCC(O)CN2CCC(C(N)=O)CC2)cc1OC (centres undefined),inactive,
COc1ccc([N+](=O)[O-])cc1NC(=O)c1ccccc1SC,inactive,
CCOC(=O)c1ccc(NC(=O)COc2cc(=O)n(CC)c3ccccc23)cc1,inactive,
O=C(Nc1ccc(F)cc1)C(c1cccc(F)c1)N1CCN(c2ccncc2)CC1 (centres undefined),"inconclusive [inhibitor, single point]",

SMILES,Potency,"activity change, negative = growth inhibition"
Cc1cc(-c2nc(C)c(C(=O)NN)s2)no1,inactive,
C#Cc1cccc(NC(=O)c2ccc3c(c2)C(=O)N(Cc2cccnc2)C3=O)c1,inactive,
Cc1noc(C)c1-c1nc(NC2CC2)c2ccccc2n1,"inconclusive [inhibitor, single point]",
CCOC(=O)c1ccccc1-c1csc(NS(=O)(=O)c2ccc(Cl)cc2)n1,inactive,
Cc1c(C(=O)NCc2ccc(F)cc2)sc2nc(-c3ccccc3)cn12,"inconclusive [inhibitor, single point]",
CN(C)S(=O)(=O)c1ccc(SCC(=O)Nc2cccc(S(=O)(=O)N3CCCC3)c2)nc1,"inconclusive [inhibitor, single point]",
CCS(=O)(=O)Nc1ccc(-c2nnc(SCC(=O)c3ccc(NC(C)=O)c(OC)c3)o2)cc1,"inconclusive [inhibitor, full curve]",
Cc1noc(/C=C/c2ccco2)c1S(=O)(=O)N1CCC(C(=O)N2CCc3ccccc32)CC1,"inconclusive [inhibitor, single point]",
COc1cccc(-c2nnc(SCC(=O)Nc3ccc(OC)c(OC)c3)n2N)c1,inactive,
O=C(NCC1CCCCC1)c1cc(S(=O)(=O)N2CCCCC2)ccc1N1CCOCC1,inactive,
COCC1CCN(C(=O)c2cc(COc3ccccc3SC)on2)C1 (centres undefined),inactive,
COC/C=C/C1=CC(=O)C[C@H](c2ccc3c(c2)OCO3)C1,active: 18.4 µM,
CN(C)c1ccc(/C=C/c2ccnc3c([N+](=O)[O-])cccc23)cc1,"inconclusive [inhibitor, partial curve]",
Cc1cc(/C=N/NC(N)=S)c(O)c(/C=N/NC(N)=S)c1,"inconclusive [inhibitor, full curve, poor fit]",
COc1cccc(/C=N/NC(=O)C(=O)N2CCCC2)c1,inactive,
CC(C)NC[C@H](O)c1ccc2ccccc2c1,"inconclusive [inhibitor, single point]",
CCOc1ccc(C(CC(=O)O)N2Cc3ccccc3C2=O)cc1OC (centres undefined),inactive,
COc1ccc(CCNC(=O)CNCC(c2ccccc2)N(C)C)cc1OC (centres undefined),inactive,
O=C(Nc1ccc(N2CCCC2=O)cc1)c1cccc(F)c1,"inconclusive [inhibitor, partial curve]",
COc1ccc(C(=O)COC(=O)Cn2cnc3c2c(=O)n(C)c(=O)n3C)c(OC)c1,inactive,
CCN(CC)S(=O)(=O)c1ccc(NS(=O)(=O)CC23CCC(CC2=O)C3(C)C)cc1 (centres undefined),"inconclusive [inhibitor, single point]",
COc1ccc(CNC(=O)c2ccc(S(=O)(=O)NCc3ccco3)cc2)cc1,inactive,
CN(C)c1ccc(/C=C2\C=Nc3ccccc32)cc1,"inconclusive [inhibitor, single point]",
CC(C)(C)c1ccccc1NC(=O)Cn1c(=O)cnc2ccccc21,inactive,
Cc1cccc(N(C)C(=O)c2cc(S(=O)(=O)N3CCCC3)cn2C)c1,inactive,

SMILES,Potency,"activity change, negative = growth inhibition"
CCCN(Cc1ccccc1)C(=S)NC(=O)c1ccccc1[N+](=O)[O-],inactive,
CCOC(=O)N(C)c1c(CC)nc2c(OCc3ccccc3OC)cccn12,active: 16.4 µM,
CC(=O)c1cccc(Nc2cc(C)nc3c(C)cccc23)c1,"inconclusive [inhibitor, partial curve]",
CN(C)c1ccc(C(=O)/C=C/c2cccnc2)cc1,"inconclusive [inhibitor, single point]",
COC(=O)c1ccccc1NC(=O)NCCc1c(C)nn(C)c1C,"inconclusive [inhibitor, single point]",
CCc1ccc(CNCc2c(C(=O)O)n(Cc3cccc(F)c3)c3cc(OC)ccc23)cc1,active: 20.6 µM,
COc1ccc(OCCCCn2c(CO)nc3ccccc32)cc1,"inconclusive [inhibitor, single point]",
CCOC(=O)Cn1c(=O)oc2cc(S(=O)(=O)NCc3ccccn3)ccc21,inactive,
COc1ccc(/C=N/n2c(-c3ccco3)nc3ccccc3c2=O)cc1,"inconclusive [inhibitor, partial curve]",
O=C(c1ccco1)N1CCN(c2nc3ccsc3c(=O)s2)CC1,"inconclusive [inhibitor, partial curve]",
COc1ccc(OCc2cc(C(=O)NC(C)c3cnn(C)c3)no2)c(Cl)c1 (centres undefined),inactive,
Cc1cc(C)nc(Nc2n[nH]c(COc3ccccc3)n2)n1,active: 18.4 µM,
CC(C)c1ccc(NC(=O)Nc2nc(C(N)C(C)C)cs2)cc1 (centres undefined),active: 16.4 µM,
CCOC(=O)c1cccc(Nc2c3c(nc4ccccc24)CCC3)c1,active: 13 µM,
COC(=O)[C@@H](Cc1ccccc1)NC(=O)Cn1cnc2c(SC)nc(N)nc21,inactive,
COc1ccc(C)cc1Nc1n[n+](-c2ccccc2)c(-c2ccc(SC)cc2)s1,active: 14.6 µM,
O=C(O)c1ccc(N/N=C/C=C/c2ccc([N+](=O)[O-])o2)cc1,active: 23.1 µM,
O=C(NCCS(=O)(=O)N1CCN(c2ccccc2)CC1)C(c1ccccc1)c1ccccc1,"inconclusive [inhibitor, single point]",
O=C1CC(c2ccccc2)Cc2[nH]c(=O)c(C(=O)Nc3cccc(F)c3)cc21 (centres undefined),"inconclusive [inhibitor, single point]",
C/C(=N/NC(=O)OC(C)(C)C)c1ccco1,inactive,
Cc1ccc(C(=O)C(NC(=O)c2ccco2)N2CCOCC2)cc1 (centres undefined),inactive,
CCOc1ccc(N2C(=O)Cc3ccccc3C2=O)cc1,"inconclusive [inhibitor, single point]",
COc1cccc(N2CCN(S(=O)(=O)c3ccc4[nH]c5c(c4c3)CCCC5)CC2)c1,"inconclusive [inhibitor, single point]",
COc1ccccc1-n1nnnc1SCC(=O)NCC1(N2CCCCC2)CCCCC1,inactive,
